Measured values: publication PMC12136788
This is one part of the list.

B1: chr2:201645282:201645383:-|CDS|ENSG00000082126|unk|total|mutant (ssRNA)
RNA: GGGAGUUCUACAGUCCGACGAUCUACUAUCCAUAUUUUUCUAUUUCUCCUAAAGGAUGAAGACCUACAAGAGAUGGAAAAUUCCGCCCAAAGAAUGGAAACUCAGUUUGGCCAAUUUUUUGAUCAUGUGAUUGUGAAUGACAGCAACAGAGGAUUGAGCAUCA
B2: chr14:90848141:90848242:-|3pUTR|ENSG00000100784|unk|total|mutant (ssRNA)
RNA: GGGAGUUCUACAGUCCGACGAUCCGAUAACUGGUACUGCCUUUGAUUAAAGGUGAGCUAUAUGGAGUUAAGCAUUUUUAUACCCGUAACUAUUUAUUGAGAAUUUUCAGAAUUCUACCGCUACUUGUCUUUAACAGUUAUAAGCAACAGAGGAUUGAGCAUCA
B3: chr12:88196262:88196297:+|3pUTR|ENSG00000139324|msi1_unk|total|mutant (ssRNA)
RNA: GGGAGUUCUACAGUCCGACGAUCUGUAUACUUGUUUUUAACUUUAAAUGUAAUUUUUAAUCAGGUAAAGUUUGACACAUGUACCGCUACAUACACACAUUUUUAAUGGUGCUCAUAUAUACUGUAUUUUUUGUUGUUCCGUUUCAACAGAGGAUUGAGCAUCA
B4: chr4:159352722:159352837:+|CDS|ENSG00000109756|unk|total|mutant (ssRNA)
RNA: GGGAGUUCUACAGUCCGACGAUCACUGUGGAUAAUUUUUCAGAUUCUGGUCACAGUGAAAUUUCUUCACGAUCCAGUAUUGUCCGCAAUUCGUCUUUUGACUCAGUGCCAGUCUCACUGCACGAUGAGAGGCGCCAGAGGCAUCAACAGAGGAUUGAGCAUCA
B5: chrX:152971868:152971969:+|3pUTR|ENSG00000147394|unk|total|mutant (ssRNA)
RNA: GGGAGUUCUACAGUCCGACGAUCUUCCCUUACAGGUAUGUUGGCAUGUGUUGGAAAAUUUACACAAUCCGGUUUAAAUUCAGCCGGAUGUGAUUUCCGGAUGCUACUGAUCAAAGUGAUAUCUGUGUCUGUUGGAAUCUUGAUCAACAGAGGAUUGAGCAUCA
B6: chr15:44524374:44524475:+|3pUTR|ENSG00000137770|msi1|total|mutant (ssRNA)
RNA: GGGAGUUCUACAGUCCGACGAUCUAUCUAUCUCAGAUCGAAUACAUACCGCCGGCCGGCUAAAACAGAAGAGUCUUCCGAACCCGUGCAACUCCAGUGAAAUUUUUUAUGUACAGGACAUCUGCAGUUUAUAAAGAAUUCUGUCAACAGAGGAUUGAGCAUCA

Target: MSI1 full-length (mouse, UniProt Q61474 1-362)
Sequence of UniProt Q61474 (Q61474 whole entry): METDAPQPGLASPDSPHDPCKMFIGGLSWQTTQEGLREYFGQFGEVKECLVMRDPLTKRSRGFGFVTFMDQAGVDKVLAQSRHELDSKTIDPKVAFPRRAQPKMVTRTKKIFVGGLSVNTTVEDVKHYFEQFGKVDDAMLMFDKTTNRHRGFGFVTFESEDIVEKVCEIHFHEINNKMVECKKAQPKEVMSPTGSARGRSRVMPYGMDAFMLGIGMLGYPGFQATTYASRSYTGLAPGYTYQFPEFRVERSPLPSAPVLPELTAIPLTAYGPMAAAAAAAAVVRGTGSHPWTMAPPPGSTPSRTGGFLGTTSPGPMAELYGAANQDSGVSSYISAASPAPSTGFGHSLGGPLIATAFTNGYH
Assay: nsRBNS (natural sequence RNA bind-n-seq); RBNS binding buffer (assumed for nsRBNS): 25 mM Tris pH 7.5, 150 mM KCl, 3 mM MgCl2, 0.01% Triton X-100, 500 ug/ml BSA, 20 U/ml SUPERase-In, 4 C; UNK is unkempt and MSI1 is Musashi-1; names of the RNAs are library labels; protein concentration not given here; high values mean tight binding

Row | Binder | binding signal
1 | B1 | 0.384 enrichment R
2 | B2 | 1.32 enrichment R
3 | B3 | 1.34 enrichment R
4 | B4 | 0.197 enrichment R
5 | B5 | 0.162 enrichment R
6 | B6 | 0.475 enrichment R
